Measured values from PubChem BioAssay AID1508624 (National Center for Advancing Translational Sciences (NCATS), 2021).
The campaign covered roughly 48,000 compounds. About 120 (0.25%) were called active. Not shown: some 4% with an inconclusive outcome. The call rests on the fitted dose curve; in most records, active means well fitted activation curve with a large enough effect; inconclusive means small, poorly fitted or top-dose-only effect, or another doubt; inactive means no such curve, though single readings can be large or run the other way. This is one part of the list.

Experiment: Primary qHTS for Identification of Small Molecule Activators of Huntingtin-Antisense Promoter Activity; further: nearly all actives have a fitted effect of over 55% in size
Details: HEK293 HTT-AS promoter firefly luciferase reporter, 24 h; series mostly up to 57.5 µM; activity change, positive = activation: at the top concentration
Procedure, shortened: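 Firefly luciferase readout (Dual-Glo, 10 min RT) after 24 h, 37 °C compound exposure (final up to 57.5 uM) of HEK293 reporter cells cultured 24 h beforehand; PTC124 at 50 uM final as control inhibitor; activity scaled vehicle 0%, zero RLU -100%.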

Activity change, positive = activation, inactive:
Cc1ccc(NC(=O)Cn2nc(C)n3cccc3c2=O)c(C)c1 -10.6%
Cc1cccc(N2CCN(C(=O)c3cc4c(=O)n(C)c5ccccc5c4s3)CC2C)c1 (stereo unspecified) -8.08%
COc1ccc(NC(=O)c2c(C)oc3ccc(O)c(CN4CCCCCC4)c23)cc1Cl -30.8%
COc1ccc(/C=C/c2nc(C#N)c(NCCc3ccccc3)o2)cc1OC -16.6%
COc1ccc(Nc2nc3c(S(=O)(=O)c4ccccc4)nnn3c3ccsc23)cc1OC -18.9%
Cc1cccc(C(=O)Nc2c(C(=O)NCc3ccc(Cl)cc3)sc3nc(C)cc(C)c23)c1 -50.3%
COc1ccc(OC)c(CCNC(=O)c2cnn(-c3ccccc3Cl)c2C2CCN(C(=O)OC(C)(C)C)CC2)c1 -26.9%
COc1ccc(CCNC(=O)c2cn(C)c3ccc(S(=O)(=O)N(C)C4CCCCC4)cc3c2=O)cc1OC -1.67% [at 11.5 µM, percent change from vehicle, -100% = no light]
COc1cccc(-n2c(=O)c3c(C)c(C)sc3n(CC(=O)NCc3ccccc3)c2=O)c1 5.53%
COc1ccc(-c2nsc(NC(=O)C(C)Oc3ccc(Cl)c(C)c3)n2)cc1 (stereo unspecified) -7.46%
Cc1ccc(C)c(Cn2c(=O)cc(C)c3c(C)nn(-c4cccc(F)c4)c32)c1 -10.7%
COc1ccc(NC(=O)c2cnc(Nc3ccc(C)c(Cl)c3)c3ccccc23)cc1OC -5.05%
O=c1[nH]c(=O)n(C2CCCCC2)c(O)c1C1=Nc2ccccc2SC(c2ccc(Cl)cc2)C1 (stereo unspecified) -18.3%
COc1ccc2cc3cc(C(=O)N4CCN(c5ccccc5F)CC4)oc3nc2c1 -4.32%
CCCOc1ccc(C2CC(=O)Nc3c2c(C)nn3-c2nncc(-c3cccc(OC)c3)n2)cc1OC (stereo unspecified) -9.49%
COc1cccc(C2=CC(c3cc(Br)ccc3F)n3nnnc3N2)c1 (stereo unspecified) -43.5%
COc1cccc(OC)c1C(=O)Nc1nc2c(s1)CCc1ccccc1-2 -7.7%
Cc1cccc(NC(=O)c2ccc3c(c2)CCN3S(=O)(=O)c2ccccc2)c1C -0.809%
Cc1nc2c(c(C)c1CCC(=O)NCc1ccc(Cl)cc1)c(=O)n(C)c(=O)n2C -7.56%
COC(=O)c1ccc(NC(=O)N2CCN(Cc3cc(=O)n4nc(-c5ccc(C)cc5)sc4n3)CC2)cc1 -1.75%
CC(CNC(=O)CN1C(=O)c2cccnc2Oc2ccc(Cl)cc21)c1ccccc1 (stereo unspecified) -8.51%
COc1ccc(-c2noc(-c3ccc(N4CCN(c5ccccc5)CC4)c([N+](=O)[O-])c3)n2)cc1 -4.23%
Cc1c(F)c(N2CCNC(C)C2)cc2c1c(=O)c(C(=O)O)cn2C1CC1 (stereo unspecified) -7.04%
COc1ccc(N2CC(C(=O)NCc3nnnn3-c3ccc(C)c(C)c3)CC2=O)cc1 (stereo unspecified) -5.39%
Cc1cccc(N2C(=O)CSC23C(=O)N(CC(=O)NCc2ccccc2Cl)c2ccccc23)c1 (stereo unspecified) -15.9%
COc1ccccc1NC(=O)Cn1c(=O)c(CNc2ccc(C)cc2)cc2cc3c(cc21)OCCO3 0.253%
COc1ccc(CCNC(=O)C(=O)NCC(c2ccco2)S(=O)(=O)c2ccccc2)cc1 (stereo unspecified) -19.6%
O=C(Cn1c(SCCOc2ccc(Cl)cc2)nc2ccccc21)N1CCCCC1 -31.4%
COc1ccc(-c2nnc3n2N(C(C)=O)C(c2ccc(Cl)c(Cl)c2)=C(C(C)=O)S3)cc1 -0.966%
CCN(C(=O)Cn1cnc2onc(-c3ccc(F)cc3)c2c1=O)c1ccc(OC)cc1 -25.9%
CCOc1ccc(NC(=O)Cn2c(=O)c(CNc3ccc(CC)cc3)cc3cc4c(cc32)OCO4)cc1 1.73%
Cc1oc2ncn(CC(C)C)c(=O)c2c1C(=O)NC(C)c1ccccc1 (stereo unspecified) -32.4%
Cc1cc(C)c2nc(NC(=O)c3ccc(S(=O)(=O)N4CCc5ccccc54)cc3)sc2c1 -23.2%
Cc1ccc(CNc2ncnc3onc(-c4ccc(F)cc4)c23)cc1 -37.9%
COc1ccc(C(=O)Nc2ccc3c(c2)CCCN3C(=O)c2cccs2)c(OC)c1 -32.4%
COc1cc(OC)c(NC(=O)N2CCCn3nc(C)cc32)cc1Cl -5.09%
Cc1cccc(-n2ccnc2SCC(=O)Nc2cccc3ccccc23)c1C -32.4%
COCCn1c(C)cc(O)c(C(c2ccccc2)N2CCN(c3ccccc3)CC2)c1=O (stereo unspecified) 1.28%
COc1ccc(-c2nnc(SCC(=O)NC3CCCCC3)nc2-c2ccc(OC)cc2)cc1 -12.3%
O=C(Cn1c(=O)n(Cc2ccc3c(c2)OCO3)c(=O)c2oc3ccccc3c21)Nc1ccccc1F -14%
O=C(NCc1nc2ccccc2[nH]1)c1c(F)cccc1F 5.75%
Cc1cccc(-n2c(C)nc3cc(C(=O)NCCC4=CCCCC4)ccc32)c1 14.1%
Cc1ccc(/C=C/c2onc(C)c2S(=O)(=O)N2CCC(C(=O)N3CCN(c4ccccc4F)CC3)CC2)cc1 -15.9%
COc1ccc(NC(=O)CCNS(=O)(=O)c2cccc3nsnc23)cc1Cl -14.4%
O=C(NCCc1ccccc1Cl)c1ccc2c(=O)n(-c3ccccc3)c(=O)[nH]c2c1 -34.1%
CCCS(=O)(=O)N1CC(=O)N(c2ccc(C)cc2)C(C)(C(=O)NC2CCCCCC2)C1 (stereo unspecified) -12.5%
COc1ccc(CCNC(=O)c2cc3sccc3n2Cc2ccc(Cl)cc2)cc1OC -33.8%
CCOc1ccccc1CN1CCc2nc(Nc3ccc4c(c3)OCCO4)ncc2C1 -20.3%
O=C(CSc1nc(Nc2ccc(F)cc2)c2ccccc2n1)c1ccc(F)cc1 -23.7%
COc1cc2ncn(-c3cc(OCc4ccccc4S(C)(=O)=O)c(C#N)s3)c2cc1OC -20.1%
CC(=O)Nc1ccc([C@H](C)C(=O)Nc2ncc(C(C)C)s2)cc1 -19.1%
CCc1ccc(NC(=O)CCCc2nnc3n(CC(C)C)c(=O)c4sccc4n23)cc1 -12.6%
O=C(Nc1c2c(nn1-c1ccc(Cl)cc1)CS(=O)(=O)C2)c1cccc(F)c1 -16.9%
CC(C)CN(CC(C)C)S(=O)(=O)c1ccc(C(=O)Nc2sc3c(c2C(N)=O)CC(C)(C)NC3(C)C)cc1 -32.3%
COC(=O)c1ccc(C2c3c(-c4ccccc4O)n[nH]c3C(=O)N2Cc2ccncc2)cc1 (stereo unspecified) 6.01%
COc1ccc(-c2nc(CNS(=O)(=O)c3ccc(Br)cc3)cs2)cc1 -28.5%
CC(C)c1nn2c(=O)cc(COC(=O)c3ccccc3NC(=O)COc3ccccc3)nc2s1 0.446%
CCOc1ccccc1NC(=O)c1c(NCc2cccs2)sc2c1CCC(C)C2 (stereo unspecified) -6.74%
Cc1nnc(NC(=O)CSc2nccn2Cc2ccc(F)cc2)s1 -19.9%
CC(=O)Nc1ccc(S(=O)(=O)NCCc2cn3ccsc3n2)cc1 -12%
CCC(=O)N1CCc2cc(OC)c(OC)cc2C1COc1ccccc1OC (stereo unspecified) -18.4%
Cc1cccc(OCc2ccc(-c3nc(C#N)c(NCc4cccnc4)o3)o2)c1 -18.3%
O=C(CSc1nc(-c2cccc(F)c2)[nH]c1-c1ccccc1)Nc1ccc2c(c1)OCCO2 -16.8%
CCc1cccc(NC(=O)CN2Cc3ccccc3C2=O)c1 -9.96%
COc1ccc(-c2cc(C)no2)cc1S(=O)(=O)NCc1cccs1 -20%
CCOc1ccc(C2CC(=O)Nc3cc4c(cc32)OCO4)cc1OC (stereo unspecified) -30.5%
COc1cc(CNC(=O)C2CCCCN2S(=O)(=O)c2ccc(F)cc2)cc(OC)c1OC (stereo unspecified) 16.7% [at 11.5 µM, percent change from vehicle, -100% = no light]
CCOC(=O)c1c(S(=O)(=O)N2CCCC(C(=O)Nc3ccccn3)C2)c(C)n(C)c1C (stereo unspecified) 9.6%
Cc1ccc(CNC(=O)C2CCN(S(=O)(=O)c3ccc(F)cc3)CC2)cc1 6.16%
CC(=O)N1CCc2c(sc3c2c(=O)n(-c2ccc(C)cc2)c(=O)n3Cc2c(F)cccc2Cl)C1 -12.1%
COc1ccc(CNC(=O)c2cc(-c3ccc(OC)cc3)nc3n[nH]c(-c4cccc([N+](=O)[O-])c4)c23)cc1 0.293%
COc1ccccc1CNC(=O)c1cccn1-c1nnc(N2CCCCC2)s1 -13.4%
COc1ccc(CN2CCc3c(c(=O)n4ncc(C(=O)N5CCN(c6ccc(F)cc6)CC5)c4n3C)C2)cc1 -50.7%
COC(=O)c1c(NC(=O)Cc2coc3cc(C)ccc23)sc2c1CCCC2 -2.92%
CCCOc1cccc(C2c3c(oc4ccccc4c3=O)C(=O)N2c2nncs2)c1 (stereo unspecified) -17.2%
Cc1ccc(-c2nc(CS(=O)CC(=O)N3CCN(c4cccc(Cl)c4)CC3)c(C)o2)cc1 (stereo unspecified) -32.4%
COc1cccc(C(=O)c2cn(CC(=O)NCc3ccccc3Cl)c3nc(C)ccc3c2=O)c1 -59.4%
Cc1ccc2cccc(NC(=O)COc3ccccc3Cl)c2n1 -15.1%
Cc1ccc(C)c(Cn2c(CCCNC(=O)C3CCCCC3)nc3ccccc32)c1 -23.3%
Cc1c(Cl)cccc1NC(=O)Cn1cc(C(=O)c2cccs2)c2ccccc21 -66.9%
Cc1nc(-c2cccc(NC(=O)Nc3ccccc3C(F)(F)F)c2)no1 -10.1%
CCc1ccc(-n2c(=O)c3sc4ccccc4c3n(CC(=O)N3CCCC3)c2=O)cc1 -5.97%
O=C(CSc1nc2ccsc2c(=O)n1Cc1ccccc1Cl)NCc1ccc(F)cc1 -32.4%
CCOC(=O)c1[nH]c(C)c(C(=O)NC(CC)Cc2ccccc2)c1C (stereo unspecified) -2.15%
O=C(CN1C(=O)COc2ccc(S(=O)(=O)NC3CCCC3)cc21)Nc1ccc(Cl)cc1 8.24%
O=C(Nc1cccc(-c2cn3cccnc3n2)c1)c1cc(Br)ccc1Cl 1.27%
Cc1ccc(C)c(NC(=O)Cn2c(=O)n(CC3CCCO3)c(=O)c3ccccc32)c1 (stereo unspecified) -12.1%
CC(=O)Nc1ccc(NC(=O)CSc2nc3ccccc3nc2N2CCCCC2)cc1 -18.3%
COc1ccc(C(=O)Nc2cc(C)c(O)c(-c3nc4ccccc4s3)c2)cc1OC 1.9%
Cn1c(-n2cccc2)c(-c2c(-c3ccccc3)[nH]c3c2c(=O)[nH]c(=O)n3C)c(=O)[nH]c1=O -15.2%
Cc1ccc2c(c1)N(CC(=O)NCCc1ccc(Cl)cc1)C(=O)c1cccnc1O2 -35.5%
